Among the data in the supplement of paper PMC4604168 (melanoma cell lines) are cell count values, retold here.

The list shows a part of the results. Repeats are few or missing, and single values can be far off.
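Also: cells treated in 1,536-well plates, then fixed and DAPI-stained, with nuclei counted from automated high-throughput microscope images.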

The subject of this test is A375. Nature of the test: cell count relative to DMSO control; melanoma cells; higher = more viable cells. Particulars: library dose: standard library concentration; 72 h; first compound 2 µM.
The compound `C[C@@H](N)c1ccc(C(=O)Nc2ccnc3[nH]ccc23)cc1` + CC(C)C[C@H](NC(=O)[C@H](Cc1ccccc1)NC(=O)c1cnccn1)B(O)O [Bortezomib] (partner dose 0.005 µM) returned a cell count of 67.9%.
As for `CCCCCCCCCCCCCCCCCCOP(=O)([O-])OC1CC[N+](C)(C)CC1` [Perifosine] + COc1cc2c(Oc3ccc4[nH]c(C)cc4c3F)ncnc2cc1OCCCN1CCCC1 [cediranib] (partner dose 2 µM), the cell count came out at 76.6%.
Then `Cn1sc(=O)n(Cc2ccccc2)c1=O` + COc1cc2c(Oc3ccc4[nH]c(C)cc4c3F)ncnc2cc1OCCCN1CCCC1 [cediranib] (partner dose 2 µM), with 95.1%.
The compound `C[C@@H](N)c1ccc(C(=O)Nc2ccnc3[nH]ccc23)cc1` + Clc1ccc(Nc2nnc(Cc3ccncc3)c3ccccc23)cc1 [vatalanib] (partner dose 10 µM) had a cell count of 108%.
Then `CCCCCCCCCCCCCCCCCCOP(=O)([O-])OC1CC[N+](C)(C)CC1` [Perifosine] + CC(C)(C)c1cnc(CSc2cnc(NC(=O)C3CCNCC3)s2)o1 [SNS-032] (partner dose 0.05 µM), with 77.3%.
In turn, `CCCCCCCCCCCCCCCCCCOP(=O)([O-])OC1CC[N+](C)(C)CC1` [Perifosine] + CNC(=O)c1cc(Oc2ccc(NC(=O)Nc3ccc(Cl)c(C(F)(F)F)c3)cc2)ccn1 [sorafenib] (partner dose 2 µM) showed a cell count of 86.5%.
Then `CCCCCCCCCCCCCCCCCCOP(=O)([O-])OC1CC[N+](C)(C)CC1` [Perifosine] + COc1cc(Nc2ncc(F)c(Nc3ccc4c(n3)NC(=O)C(C)(C)O4)n2)cc(OC)c1OC [Tamatinib] (partner dose 2 µM), with 49.8%.
